Laboratory results from the supplement of paper PMC3334620.
Whole data set: some 33,000 sequences, median “E-score (-0.5 to 0.5)” near -0.036, cut for the highest 2% near 0.37. The list shows a part of the results.

biological target: T1, Yer064c (UniProt P40041); test: PBM E-score (8-mer binding enrichment) (E-score (-0.5 to 0.5)); higher = stronger / more preferred TF binding; most listed sequences are background and not binding sites; conditions: protein concentration: 200 nM; construct: GST-full length
T1 sequence: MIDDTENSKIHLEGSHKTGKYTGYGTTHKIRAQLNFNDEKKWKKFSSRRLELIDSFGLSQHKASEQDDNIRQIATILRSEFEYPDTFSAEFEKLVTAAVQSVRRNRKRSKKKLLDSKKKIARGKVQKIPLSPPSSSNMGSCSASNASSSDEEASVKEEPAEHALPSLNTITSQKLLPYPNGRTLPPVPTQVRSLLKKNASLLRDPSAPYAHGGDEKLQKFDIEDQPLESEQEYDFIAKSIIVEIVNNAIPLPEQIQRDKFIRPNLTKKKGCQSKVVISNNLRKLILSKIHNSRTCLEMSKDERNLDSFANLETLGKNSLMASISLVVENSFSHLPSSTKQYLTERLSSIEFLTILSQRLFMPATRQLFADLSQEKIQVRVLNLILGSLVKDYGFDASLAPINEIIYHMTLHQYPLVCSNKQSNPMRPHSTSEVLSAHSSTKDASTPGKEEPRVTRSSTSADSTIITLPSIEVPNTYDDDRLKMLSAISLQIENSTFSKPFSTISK
Experimental: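 Universal 'all 10-mer' protein binding microarrays (Agilent AMADID 015681) probed with GST-tagged S. cerevisiae TFs (full-length or DBD) made by in vitro transcription/translation (PURExpress), about 100-200 nM. Bound TF was detected with fluorescent anti-GST. Each ungapped 8-mer (which stands for itself and its reverse complement) is scored by the PBM enrichment score (E-score), a modified Wilcoxon-Mann-Whitney statistic from -0.5 to +0.5, computed with the Universal PBM Analysis Suite. Scale: above 0.35 generally sequence-specific binding.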

Sequence | PBM E-score
TCGGGTCA | 0.036
CGCTATAA | -0.101
AAGCGTGT | -0.0762
ATCCGCCG | -0.101
AGTTGTTA | 0.0551
AGCCAGTG | 0.0912
AGTTAACC | 0.133
AGGAGCAT | -0.245
AATACATT | 0.0194
CGAGACGC | -0.169
CGCATAGA | -0.188
CACTTGAA | 0.0678
TCTTAACA | 0.108
AAACGCTT | -0.311
ATAGAGAA | -0.156
CCCGATGA | 0.268
TATGGCGA | 0.0348
ACAGGCAC | -0.257
CAGTCAAA | 0.254
AATACCGA | -0.0883
ACTCTGAA | 0.23
CTAATCGA | 0.13

Sequence | PBM E-score
CGTGACTA | 0.486
CAATGCAG | -0.109
AGATAAGA | 0.0614
CTTACAGA | -0.154
AGCGCAGC | -0.0836
ACGTAGGC | -0.297
AGATACCG | -0.165
GGCGTTAC | -0.247
ACCTTAGG | -0.193
CCGTCACA | -0.22
TACTTTCA | 0.0717
ACGAAGGG | -0.192
CTTACATA | 0.00734
CAATCGTC | 0.0944
AACCTATC | -0.346
AAAGCTCT | -0.298
AGCGGAGG | -0.24
CTTGGCTC | -0.0769
AGCTTGAC | 0.112
CCCCCTTA | -0.305
GAATCACA | 0.439
AATCTACA | 0.101

Sequence | PBM E-score
AGTGACAC | -0.0262
CCCTACTC | -0.144
CGCTTAAC | -0.025
CAGACGAG | -0.0357
CCGCGCAG | -0.036
CCGTATCG | -0.155
GGGCCACA | -0.262
CCGTCGTC | -0.353
ATTCGCGC | 0.0628
ATTGAATG | 0.167
GACCGATC | -0.326
GTGTTGAA | 0.0472
AAGGTCCA | -0.248
GGGCCCCA | -0.187
CATAGGTC | 0.0874
AGAAGCCC | -0.218
CGCAGACG | 0.0321
CAAGTACG | -0.0743
AGTCCTCA | 0.324
ATCCTGCA | 0.0162
GGTGCTCA | -0.193
CGGACCGC | -0.209

Sequence | PBM E-score
AATCTAGA | 0.17
AGAAGCAC | -0.198
ATCTAACG | 0.0572
AGTAGGAC | -0.0515
ACTGATAG | 0.149
ACGTTAAG | -0.0557
TGCCACCA | -0.299
CGGATACC | -0.124
ACCTAAGC | 0.0252
CGTTCTCC | -0.256
AGATCAGA | 0.0561
ACGTCCAC | -0.183
AGCCACCC | 0.0937
ACCGAAAT | -0.0482
AAAGGTAT | -0.0776
AGCAGTCG | 0.065
GAACCAAA | -0.0805
AGCATAAA | -0.0756
GCTGCGCC | -0.317
CAACTAAG | 0.122
